Laboratory results taken from the supplement of paper PMC9151546.
Single values are uncertain, as repeats are few or missing.

What was measured:
CHO-K1 [1] = experiment: micronucleus frequency (% of nucleated events); higher = more micronuclei (genotoxic)
CHO-K1 [2] = experiment: relative survival (nuclei to bead ratio vs DMSO control) (% of vehicle control); higher = more surviving cells
Description: (§1)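 Flow-cytometric in vitro micronucleus assay (Litron MicroFlow) in CHO-K1 cells in 96-well plates, 19 concentrations (4.5-200 µM, n=1 per concentration). Without S9, cells were exposed for 24 h and sampled at 48 h. With Aroclor 1254-induced rat liver S9, cells were exposed for 3-4 h and sampled at 27-28 h. Read-outs are %MN and %hypodiploid nuclei relative to nucleated events, and relative survival as the nuclei-to-bead ratio versus the 1% DMSO vehicle control (x100).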

CHO-K1 [3] = experiment: hypodiploid nuclei frequency (% of nucleated events); higher = more hypodiploid events (aneugenic)
Description: as §1
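Throughout, for hypodiploid nuclei frequency (% of nucleated events): hypodiploid nuclei gated on a flow cytometer with 488 nm excitation after SYTOX Green staining, cultures at 37 °C, positive controls vinblastine without S9 and cyclophosphamide with S9.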
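Throughout, for micronucleus frequency (% of nucleated events): cells lysed with nuclei stained by SYTOX Green, then micronucleus-gated events counted against nucleated events by flow cytometry with 488 nm excitation.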
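Throughout, for relative survival (nuclei to bead ratio vs DMSO control): Lysed-cell nuclei stained with SYTOX Green and counted against counting beads by flow cytometry at 488 nm excitation, with vinblastine (no S9) and cyclophosphamide (plus S9) as positive controls.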

Cc1ccc(N)cc1O [5-Amino-2-methylphenol]
Settings	hypodiploid nuclei frequency, CHO-K1 [3] [%]	micronucleus frequency, CHO-K1 [1] [%]	relative survival, CHO-K1 [2]
concentration: 4.55 (µM), S9 metabolic activation: with S9, exposure time: 3-4 hours	0.32	2.14	106
concentration: 4.55 (µM), S9 metabolic activation: without S9, exposure time: 24 hours	0.76	1.5	89.1
concentration: 5.69 (µM), S9 metabolic activation: with S9, exposure time: 3-4 hours	0.26	2.04	140
concentration: 5.69 (µM), S9 metabolic activation: without S9, exposure time: 24 hours	1.3	1.9	101
concentration: 7.11 (µM), S9 metabolic activation: with S9, exposure time: 3-4 hours	0.28	2.32	122
concentration: 7.11 (µM), S9 metabolic activation: without S9, exposure time: 24 hours	1.16	1.28	92.4
concentration: 8.88 (µM), S9 metabolic activation: with S9, exposure time: 3-4 hours	0.26	2.6	107
concentration: 8.88 (µM), S9 metabolic activation: without S9, exposure time: 24 hours	1.52	1.04	99.2
concentration: 11.1 (µM), S9 metabolic activation: with S9, exposure time: 3-4 hours	0.36	2.82	123
concentration: 11.1 (µM), S9 metabolic activation: without S9, exposure time: 24 hours	0.98	1.04	116
concentration: 13.9 (µM), S9 metabolic activation: with S9, exposure time: 3-4 hours	0.46	2.34	112
concentration: 13.9 (µM), S9 metabolic activation: without S9, exposure time: 24 hours	0.82	0.74	108
concentration: 17.4 (µM), S9 metabolic activation: with S9, exposure time: 3-4 hours	0.22	2.28	125
concentration: 17.4 (µM), S9 metabolic activation: without S9, exposure time: 24 hours	1.06	1.06	106
concentration: 21.7 (µM), S9 metabolic activation: with S9, exposure time: 3-4 hours	0.26	3.12	138
concentration: 21.7 (µM), S9 metabolic activation: without S9, exposure time: 24 hours	0.82	1.3	97.5
concentration: 27.1 (µM), S9 metabolic activation: with S9, exposure time: 3-4 hours	0.3	1.44	127
concentration: 27.1 (µM), S9 metabolic activation: without S9, exposure time: 24 hours	2.38	1.96	90.9
concentration: 33.9 (µM), S9 metabolic activation: with S9, exposure time: 3-4 hours	0.42	1.7	162
concentration: 33.9 (µM), S9 metabolic activation: without S9, exposure time: 24 hours	1.94	1.1	53.7
concentration: 42.4 (µM), S9 metabolic activation: with S9, exposure time: 3-4 hours	0.2	1.5	149
concentration: 42.4 (µM), S9 metabolic activation: without S9, exposure time: 24 hours	1.76	1.7	76.6
concentration: 53 (µM), S9 metabolic activation: with S9, exposure time: 3-4 hours	0.44	1.56	132
concentration: 53 (µM), S9 metabolic activation: without S9, exposure time: 24 hours	2.52	1.34	73
concentration: 66.2 (µM), S9 metabolic activation: with S9, exposure time: 3-4 hours	0.38	2.38	132
concentration: 66.2 (µM), S9 metabolic activation: without S9, exposure time: 24 hours	1.24	1.34	90
concentration: 82.7 (µM), S9 metabolic activation: with S9, exposure time: 3-4 hours	0.32	1.7	125
concentration: 82.7 (µM), S9 metabolic activation: without S9, exposure time: 24 hours	3.12	1.6	55.1
concentration: 103 (µM), S9 metabolic activation: with S9, exposure time: 3-4 hours	0.18	1.86	111
concentration: 103 (µM), S9 metabolic activation: without S9, exposure time: 24 hours	1.88	1.7	51.5
concentration: 129 (µM), S9 metabolic activation: with S9, exposure time: 3-4 hours	0.2	1.8	95.8
concentration: 129 (µM), S9 metabolic activation: without S9, exposure time: 24 hours	–	–	34.4
concentration: 162 (µM), S9 metabolic activation: with S9, exposure time: 3-4 hours	0.3	1.82	121
concentration: 162 (µM), S9 metabolic activation: without S9, exposure time: 24 hours	3.25	1.81	41.2
concentration: 202 (µM), S9 metabolic activation: with S9, exposure time: 3-4 hours	0.18	2.04	113
concentration: 202 (µM), S9 metabolic activation: without S9, exposure time: 24 hours	–	–	39

O=c1[nH]cc(F)c(=O)[nH]1 [5-Fluorouracil]
Settings	hypodiploid nuclei frequency, CHO-K1 [3] [%]	micronucleus frequency, CHO-K1 [1] [%]	relative survival, CHO-K1 [2]
concentration: 4.48 (µM), S9 metabolic activation: with S9, exposure time: 3-4 hours	0.18	1.02	108
concentration: 4.48 (µM), S9 metabolic activation: without S9, exposure time: 24 hours	0.6	1.52	140
concentration: 5.6 (µM), S9 metabolic activation: with S9, exposure time: 3-4 hours	0.16	1	97.5
concentration: 5.6 (µM), S9 metabolic activation: without S9, exposure time: 24 hours	0.5	1.26	104
concentration: 7 (µM), S9 metabolic activation: with S9, exposure time: 3-4 hours	0.24	0.62	126
concentration: 7 (µM), S9 metabolic activation: without S9, exposure time: 24 hours	0.4	1.28	97.9
concentration: 8.75 (µM), S9 metabolic activation: with S9, exposure time: 3-4 hours	0.26	1.06	95.6
concentration: 8.75 (µM), S9 metabolic activation: without S9, exposure time: 24 hours	0.4	1.32	106
concentration: 10.9 (µM), S9 metabolic activation: with S9, exposure time: 3-4 hours	0.3	1.32	99.8
concentration: 10.9 (µM), S9 metabolic activation: without S9, exposure time: 24 hours	0.38	1.24	124
concentration: 13.7 (µM), S9 metabolic activation: with S9, exposure time: 3-4 hours	0.32	1.38	109
concentration: 13.7 (µM), S9 metabolic activation: without S9, exposure time: 24 hours	0.36	1.62	94
concentration: 17.1 (µM), S9 metabolic activation: with S9, exposure time: 3-4 hours	0.22	1.7	84.3
concentration: 17.1 (µM), S9 metabolic activation: without S9, exposure time: 24 hours	0.54	1.58	115
concentration: 21.4 (µM), S9 metabolic activation: with S9, exposure time: 3-4 hours	0.22	0.88	102
concentration: 21.4 (µM), S9 metabolic activation: without S9, exposure time: 24 hours	0.48	1.64	84.8
concentration: 26.7 (µM), S9 metabolic activation: with S9, exposure time: 3-4 hours	0.3	1.16	83.8
concentration: 26.7 (µM), S9 metabolic activation: without S9, exposure time: 24 hours	0.5	0.96	86.1
concentration: 33.4 (µM), S9 metabolic activation: with S9, exposure time: 3-4 hours	0.4	1.36	96.1
concentration: 33.4 (µM), S9 metabolic activation: without S9, exposure time: 24 hours	0.64	0.76	56.7
concentration: 41.7 (µM), S9 metabolic activation: with S9, exposure time: 3-4 hours	0.26	1.26	92
concentration: 41.7 (µM), S9 metabolic activation: without S9, exposure time: 24 hours	0.52	1.68	80.6
concentration: 52.2 (µM), S9 metabolic activation: with S9, exposure time: 3-4 hours	0.56	1.38	73.4
concentration: 52.2 (µM), S9 metabolic activation: without S9, exposure time: 24 hours	0.44	1.34	95.6
concentration: 65.2 (µM), S9 metabolic activation: with S9, exposure time: 3-4 hours	0.36	1.26	76.3
concentration: 65.2 (µM), S9 metabolic activation: without S9, exposure time: 24 hours	0.52	1.42	81.8
concentration: 81.5 (µM), S9 metabolic activation: with S9, exposure time: 3-4 hours	0.18	1.5	82.2
concentration: 81.5 (µM), S9 metabolic activation: without S9, exposure time: 24 hours	0.64	1.32	81
concentration: 102 (µM), S9 metabolic activation: with S9, exposure time: 3-4 hours	0.26	1.46	86
concentration: 102 (µM), S9 metabolic activation: without S9, exposure time: 24 hours	0.8	1.92	91.1
concentration: 127 (µM), S9 metabolic activation: with S9, exposure time: 3-4 hours	0.3	1.86	82.7
concentration: 127 (µM), S9 metabolic activation: without S9, exposure time: 24 hours	0.88	1.76	68.4
concentration: 159 (µM), S9 metabolic activation: with S9, exposure time: 3-4 hours	0.22	1.76	96.6
concentration: 159 (µM), S9 metabolic activation: without S9, exposure time: 24 hours	0.98	2.3	91.3
concentration: 199 (µM), S9 metabolic activation: with S9, exposure time: 3-4 hours	0.14	1.6	78.3
concentration: 199 (µM), S9 metabolic activation: without S9, exposure time: 24 hours	0.86	2.82	89.6

Nc1nc(=S)c2[nH]cnc2[nH]1 [6-Thioguanine]
Settings	hypodiploid nuclei frequency, CHO-K1 [3] [%]	micronucleus frequency, CHO-K1 [1] [%]	relative survival, CHO-K1 [2]
concentration: 4.5 (µM), S9 metabolic activation: with S9, exposure time: 3-4 hours	0.18	1.36	64.4
concentration: 4.5 (µM), S9 metabolic activation: without S9, exposure time: 24 hours	0.34	1.88	74.8
concentration: 5.63 (µM), S9 metabolic activation: with S9, exposure time: 3-4 hours	0.26	1.32	79.4
concentration: 5.63 (µM), S9 metabolic activation: without S9, exposure time: 24 hours	0.68	1.52	72.3
concentration: 7.04 (µM), S9 metabolic activation: with S9, exposure time: 3-4 hours	0.12	1.3	76.2
concentration: 7.04 (µM), S9 metabolic activation: without S9, exposure time: 24 hours	0.7	2.08	66.8
concentration: 8.8 (µM), S9 metabolic activation: with S9, exposure time: 3-4 hours	0.24	1.5	66.9
concentration: 8.8 (µM), S9 metabolic activation: without S9, exposure time: 24 hours	0.48	2.18	56.2
concentration: 11 (µM), S9 metabolic activation: with S9, exposure time: 3-4 hours	0.34	1.16	71.3
concentration: 11 (µM), S9 metabolic activation: without S9, exposure time: 24 hours	0.84	2.28	62
concentration: 13.7 (µM), S9 metabolic activation: with S9, exposure time: 3-4 hours	0.26	1.2	62.6
concentration: 13.7 (µM), S9 metabolic activation: without S9, exposure time: 24 hours	1.04	2.9	54
concentration: 17.2 (µM), S9 metabolic activation: with S9, exposure time: 3-4 hours	0.36	1.12	75.2
concentration: 17.2 (µM), S9 metabolic activation: without S9, exposure time: 24 hours	1.54	3.14	56.2
concentration: 21.5 (µM), S9 metabolic activation: with S9, exposure time: 3-4 hours	0.26	1.8	76.9
concentration: 21.5 (µM), S9 metabolic activation: without S9, exposure time: 24 hours	1.58	3.34	45.8
concentration: 26.8 (µM), S9 metabolic activation: with S9, exposure time: 3-4 hours	0.26	1.4	73.5
concentration: 26.8 (µM), S9 metabolic activation: without S9, exposure time: 24 hours	1.48	3.22	57.7
concentration: 33.6 (µM), S9 metabolic activation: with S9, exposure time: 3-4 hours	0.22	1.36	71.3
concentration: 33.6 (µM), S9 metabolic activation: without S9, exposure time: 24 hours	1.56	2.7	62.9
concentration: 41.9 (µM), S9 metabolic activation: with S9, exposure time: 3-4 hours	0.3	1.7	70.8
concentration: 41.9 (µM), S9 metabolic activation: without S9, exposure time: 24 hours	1.08	2.98	44.2
concentration: 52.4 (µM), S9 metabolic activation: with S9, exposure time: 3-4 hours	0.26	2.72	65.6
concentration: 52.4 (µM), S9 metabolic activation: without S9, exposure time: 24 hours	1.44	2.92	47.7
concentration: 65.5 (µM), S9 metabolic activation: with S9, exposure time: 3-4 hours	0.34	3.26	74.8
concentration: 65.5 (µM), S9 metabolic activation: without S9, exposure time: 24 hours	1.1	2.7	44.6
concentration: 81.9 (µM), S9 metabolic activation: with S9, exposure time: 3-4 hours	0.38	3.64	66
concentration: 81.9 (µM), S9 metabolic activation: without S9, exposure time: 24 hours	1.14	3.44	46.4
concentration: 102 (µM), S9 metabolic activation: with S9, exposure time: 3-4 hours	0.32	4.44	62.6
concentration: 102 (µM), S9 metabolic activation: without S9, exposure time: 24 hours	1	3.38	43.1
concentration: 128 (µM), S9 metabolic activation: with S9, exposure time: 3-4 hours	0.62	6.62	54.8
concentration: 128 (µM), S9 metabolic activation: without S9, exposure time: 24 hours	–	–	39.3
concentration: 160 (µM), S9 metabolic activation: with S9, exposure time: 3-4 hours	0.72	6.9	61.7
concentration: 160 (µM), S9 metabolic activation: without S9, exposure time: 24 hours	–	–	37.5
concentration: 200 (µM), S9 metabolic activation: with S9, exposure time: 3-4 hours	0.76	7.46	54.2
concentration: 200 (µM), S9 metabolic activation: without S9, exposure time: 24 hours	–	–	36.6
